According to PubChem BioAssay AID485281 (National Center for Advancing Translational Sciences (NCATS), 2010):
Among all 350,000 compounds or so, about 260 (0.074%) were called active. The shares of active, inactive and inconclusive entries below differ from those in the screen. The call rests on the fitted dose curve; in most records, active means well fitted inhibition curve with a large enough effect; inconclusive means small, poorly fitted or top-dose-only effect; inactive means no such curve, though single readings can be large or run the other way. A potency beside an inconclusive call is a rough fit, not a confirmed value.

Molecular target: Ferritin light chain (Equus caballus) (UniProt P02791)
Assay: qHTS Assay for Identification of Novel General Anesthetics; further: nearly all actives have a fitted effect of over 20% in size
Conditions: apoferritin/1-aminoanthracene competitive binding, fluorescence; activity change, negative = displacement: at 77.5 µM (top of the series)
Summary of the method: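 Read-out: endpoint 1-AMA fluorescence, excitation 380 nm and emission 535 nm, after compounds sit 10 min at room temperature with 10 uM horse-spleen apoferritin in 50% saturated 1-AMA/PBS. Values come from four-parameter Hill fits.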
On the % scale 0 is the no-effect control and ±100 the full control effect; potency means the concentration at half of the fitted maximal effect; tags describe the fitted curve by direction and shape.

Sequence of UniProt P02791 (P02791 whole entry, looked up): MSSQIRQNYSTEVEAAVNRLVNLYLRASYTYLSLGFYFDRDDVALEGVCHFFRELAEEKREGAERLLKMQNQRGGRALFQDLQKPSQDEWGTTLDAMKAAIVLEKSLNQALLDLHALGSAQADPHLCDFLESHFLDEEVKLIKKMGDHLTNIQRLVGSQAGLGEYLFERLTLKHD

Row | SMILES | Potency | activity change, negative = displacement
1 | COC(=O)CC(NS(=O)(=O)c1cccs1)c1ccccc1Cl (centres undefined) | inconclusive: 31.6 µM [inhibitor, single point] | 
2 | O=C1OC2(CCCCC2)CC2=C1C1O[C@](CCCCN3C(=O)c4ccccc4C3=O)(Cc3ccccc31)O2 | inconclusive: 1.58 µM [inhibitor, full curve, poor fit] | 
3 | Cc1ccc(C(=O)C(C)OC(=O)C2CC(=O)N(C3CCCCC3)C2)cc1 (centres undefined) | inconclusive: 35.5 µM [inhibitor, partial curve] | 
4 | CCCCOC(=O)Nc1nnc(COc2ccccc2)s1 | inconclusive: 14.1 µM [inhibitor, partial curve] | 
5 | Cc1ccc(CNC(=O)C23CN(Cc4ccccc4)CC2C(c2ccc([N+](=O)[O-])cc2)=NO3)o1 (centres undefined) | inconclusive: 28.2 µM [inhibitor, partial curve] | 
6 | O=C(CSc1nc(-c2ccccc2)nn1C(=O)c1ccccc1)Nc1cccc([N+](=O)[O-])c1 | inconclusive: 31.6 µM [inhibitor, single point] | 
7 | COc1cc(C(=O)NCc2nnc(SCC(=O)Nc3nccs3)o2)cc(OC)c1OC |  | inactive: -8.73%
8 | COc1ccccc1C(=O)NC(C)c1ccccc1 (centres undefined) | inconclusive: 25.1 µM [inhibitor, partial curve] | 
9 | COCCn1c(C)cc(C(=O)COC(=O)c2ccccc2Br)c1C |  | inactive: -20.6%
10 | CCCCc1cc2c(s1)CCCC/C2=N/O | inconclusive: 31.6 µM [inhibitor, partial curve] | 
11 | CCOc1cc(C(=S)N2CCOCC2)ccc1O | inconclusive: 25.1 µM [inhibitor, single point] | 
12 | CCCN(c1c(C)n(C)n(-c2ccccc2)c1=O)S(=O)(=O)c1ccc(C)cc1 |  | inactive: -2.08%
13 | CCCCCC(=O)NNC(=S)NC(=O)c1ccccc1[N+](=O)[O-] |  | inactive: -13.2%
14 | Cc1ccc(NC(=S)N(CCN(C)C)C(C)c2ccco2)cc1C (centres undefined) |  | inactive: -20.7%
15 | CC(C)(C)OC(=O)N1CCC(c2c(C(=O)NCc3ccccc3)cnn2-c2cccc(F)c2)CC1 | inconclusive: 10 µM [inhibitor, full curve] | 
16 | O=C(COC(=O)CNC(=O)c1ccc(Cl)cc1Cl)Nc1ccc(N2CCOCC2)cc1 | inconclusive: 35.5 µM [inhibitor, partial curve] | 
17 | CC(=O)C1=C(c2ccccc2)NC(=O)NC1c1ccccc1OCC(=O)NCc1ccccc1 (centres undefined) | inconclusive: 31.6 µM [inhibitor, partial curve] | 
18 | CCN(CC)S(=O)(=O)c1ccc(C)c(NC(=S)N2CCN(C/C=C/c3ccccc3)CC2)c1 |  | inactive: 2.12%
19 | C=CC[C@@H]1C=C[C@H](O/N=C/[C@@H](NS(=O)(=O)c2ccc(C)cc2)[C@H](C)/C=C/CC(=O)OC)[C@@H](CO)O1 |  | inactive: -6.12%
